One assay has as its target T1, Slit2-N (human, UniProt O94813 31-1121).
T1 construct: In the FACS assay expressed by transient transfection of pXL5033 in HEK293 cells
T1 sequence: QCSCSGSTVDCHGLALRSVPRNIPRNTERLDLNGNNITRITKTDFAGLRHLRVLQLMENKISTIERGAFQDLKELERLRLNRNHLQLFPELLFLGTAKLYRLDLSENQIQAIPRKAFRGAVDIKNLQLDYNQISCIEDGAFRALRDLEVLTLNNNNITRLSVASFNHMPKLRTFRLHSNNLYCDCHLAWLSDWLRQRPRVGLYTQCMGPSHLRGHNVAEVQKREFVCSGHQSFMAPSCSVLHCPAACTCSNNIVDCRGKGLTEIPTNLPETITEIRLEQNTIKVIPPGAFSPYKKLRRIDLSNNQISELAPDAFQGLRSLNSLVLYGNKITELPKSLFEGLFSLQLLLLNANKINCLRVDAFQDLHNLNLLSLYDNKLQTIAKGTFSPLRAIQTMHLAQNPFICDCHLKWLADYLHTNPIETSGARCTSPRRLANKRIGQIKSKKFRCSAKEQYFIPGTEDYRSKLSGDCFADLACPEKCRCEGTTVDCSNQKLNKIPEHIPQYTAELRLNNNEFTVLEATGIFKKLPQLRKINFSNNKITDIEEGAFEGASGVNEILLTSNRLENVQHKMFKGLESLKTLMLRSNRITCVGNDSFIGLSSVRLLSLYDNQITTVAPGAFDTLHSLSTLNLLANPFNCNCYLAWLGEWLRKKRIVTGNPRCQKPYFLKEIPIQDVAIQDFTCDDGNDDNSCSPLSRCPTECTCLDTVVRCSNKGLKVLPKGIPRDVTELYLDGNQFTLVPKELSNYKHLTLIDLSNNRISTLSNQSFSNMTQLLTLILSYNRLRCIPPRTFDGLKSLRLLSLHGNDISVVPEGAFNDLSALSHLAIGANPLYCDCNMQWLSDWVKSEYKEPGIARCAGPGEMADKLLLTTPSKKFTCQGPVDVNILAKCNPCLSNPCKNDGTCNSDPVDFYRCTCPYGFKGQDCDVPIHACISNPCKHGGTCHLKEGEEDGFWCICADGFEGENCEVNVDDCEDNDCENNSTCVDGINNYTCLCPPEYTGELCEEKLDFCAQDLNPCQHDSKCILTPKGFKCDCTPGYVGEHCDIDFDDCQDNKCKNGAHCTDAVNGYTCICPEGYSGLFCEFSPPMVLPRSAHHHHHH
Nature of the assay: FACS on HEK293 cells transiently expressing Slit2-N. As to the method:
(§1) The HEK293 cells described and used as in example 1 were transfected either with a ballast plasmid, having no cDNA that encodes in the mammalian cell, or the pXL4911 plasmid encoding the Slit2-D2 protein, or the pXL4912 plasmid encoding the Slit2-D1D2 protein, or pXL5033 encoding the Slit2-N protein described in example 2, The cells were distributed into 96-well plates 48 hours post-transfection, and the Robo1-Fc protein was added in a concentration range of from 0.01 to 3 mg/L for 30 min at 4° C. The Robo1-Fc protein is either the Robo1-Fc L1 biotherapeutic agent, or the Robo1-Fc Slit2-minus mutant, or the Robo1-Fc heparin-minus mutant. The cells were washed and the anti-human Fc antibody labelled with Alexa 488 (ref: A-11013, Invitrogen) was incubated for 30 min at 4° C. The labelled HEK293 cells are then quantified by FACS (Geomean).

A further assay concerns the target T2, Slit2-D1D2 (human, UniProt O94813 31-479).
T2 construct: In the FACS assay expressed by transient transfection of pXL4912 in HEK293 cells
T2 sequence: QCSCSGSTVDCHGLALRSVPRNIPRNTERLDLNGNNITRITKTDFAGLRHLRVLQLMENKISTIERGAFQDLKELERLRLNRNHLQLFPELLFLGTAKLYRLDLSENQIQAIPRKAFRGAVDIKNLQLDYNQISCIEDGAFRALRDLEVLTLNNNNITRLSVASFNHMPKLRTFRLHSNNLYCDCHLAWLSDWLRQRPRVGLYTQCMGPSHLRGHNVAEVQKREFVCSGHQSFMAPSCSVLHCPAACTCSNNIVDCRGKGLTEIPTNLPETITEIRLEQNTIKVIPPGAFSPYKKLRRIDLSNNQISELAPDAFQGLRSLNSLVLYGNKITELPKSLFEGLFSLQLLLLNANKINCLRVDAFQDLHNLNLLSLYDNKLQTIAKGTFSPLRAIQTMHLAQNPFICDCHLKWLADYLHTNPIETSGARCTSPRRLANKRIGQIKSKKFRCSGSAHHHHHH
As to the kind of experiment: FACS on HEK293 cells transiently expressing Slit2-D1D2. As to the method: as §1

In the next assay the target is T3, mSlit2-D2 (murine, UniProt Q9WVC1 11-484 (rat entry)).
T3 construct: also called murine Slit2 protein
T3 chain: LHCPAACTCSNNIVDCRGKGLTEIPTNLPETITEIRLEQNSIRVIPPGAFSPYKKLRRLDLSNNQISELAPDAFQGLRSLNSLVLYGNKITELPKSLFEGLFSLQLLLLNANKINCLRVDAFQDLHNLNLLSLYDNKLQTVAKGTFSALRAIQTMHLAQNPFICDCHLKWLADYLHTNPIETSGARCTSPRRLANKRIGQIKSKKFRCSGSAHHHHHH
As to the kind of experiment: ELISA, mSlit2-D2 coated, Robo1-Fc L1 titrated. The method, then:
The murine protein mSlit2-D2 was bound to an Immulon-4 enzyme-linked plate (VWR Scientific Inc. Swedesboro, N.J.). A concentration range (from 2 μg/mL to 0.002 μg/mL) of the Robo1-Fc L1 fusion protein was added and then detected using the peroxidase-conjugated goat anti-human IgG antibody (Sigma; ref. A0170, dilution to 1:50 000). Visualization was carried out with the TMB-H₂O₂ substrate (Interchim; ref UP664780) and the measurements were carried out with a plate reader at 450 nm.

B1: Robo1-Fc L1 (Fc fusion)
chain: SRLRQEDFPPRIVEHPSDLIVSKGEPATLNCKAEGRPTPTIEWYKGGERVETDKDDPRSHRMLLPSGSLFFLRIVHGRKSRPDEGVYVCVARNYLGEAVSHNASLEVAILRDDFRQNPSDVMVAVGEPAVMECQPPRGHPEPTISWKKDGSPLDDKDERITIRGGKLMITYTRKSDAGKYVCVGTNMVGERESEVAELTVLERPSFV[here human IgG4 Fc with changes without letters]
notes: also called Robo-Fc L1; Robo1-Fc L1 biotherapeutic agent
The term Kd denotes the constant that tells how readily two partners part at equilibrium. One may read the EC50 as the concentration that produces a half-maximal response. Consider B1, for which the results for the Kd in the assay with Slit2-N and with Slit2-D1D2 were 1.2 nM and 0.98 nM, respectively. In the assay with mSlit2-D2, the EC50 was found to be 0.221 mg/L.

The values above are taken from US20130039912A1 (Sanofi, published 2013).
